# Source: the supplement of paper PMC8728848
# The other results are listed elsewhere or left out.
# How the values were obtained:
# Assay in all cases: glycan array binding signal (z-score within array); higher = stronger binding
# Conditions in all cases: glycan notation: IUPAC condensed, linker removed
# [1] = molecular target: Fuc(a1-2)Gal
# How it was run: (§1)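 The binding signal is a Z-score computed within each array. Data were drawn from 3228 arrays in the Consortium for Functional Glycomics database, restricted to those with a known protein sequence. Scores were averaged over arrays of the same protein sequence at different concentrations or buffers, and over linkers, and negative values can be taken as non-binding.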
# [2] = molecular target: Fuc(a1-2)Gal(b1-3)GalNAc
# How it was run: as §1
# [3] = molecular target: Fuc(a1-2)Gal(b1-3)GalNAc(b1-3)Gal
# How it was run: as §1
# [4] = molecular target: Fuc(a1-2)Gal(b1-3)GalNAc(b1-3)Gal(a1-4)Gal(b1-4)Glc
# How it was run: as §1
# [5] = molecular target: Fuc(a1-2)Gal(b1-3)GalNAc(b1-3)Gal(b1-4)Glc
# How it was run: as §1
# [6] = molecular target: Fuc(a1-2)Gal(b1-3)GalNAc(b1-4)[Neu5Ac(a2-3)]Gal(b1-4)Glc
# How it was run: as §1
# [7] = molecular target: Fuc(a1-2)Gal(b1-3)[Fuc(a1-4)]GlcNAc
# How it was run: as §1
# [8] = molecular target: Fuc(a1-2)Gal(b1-4)Glc
# How it was run: as §1
# [9] = molecular target: Fuc(a1-2)Gal(b1-4)GlcNAc
# How it was run: as §1
# [10] = molecular target: Fuc(a1-2)Gal(b1-4)GlcNAc(b1-3)Gal(b1-4)GlcNAc
# How it was run: as §1
# [11] = molecular target: Fuc(a1-2)Gal(b1-4)GlcNAc(b1-3)Gal(b1-4)GlcNAc(b1-3)Gal(b1-4)GlcNAc
# How it was run: as §1
# [12] = molecular target: Fuc(a1-2)Gal(b1-4)[Fuc(a1-3)]GalNAc(b1-3)Gal(b1-4)[Fuc(a1-3)]GlcNAc
# How it was run: as §1
# [13] = molecular target: Fuc(a1-2)Gal(b1-4)[Fuc(a1-3)]GalNAc(b1-3)Gal(b1-4)[Fuc(a1-3)]GlcNAc(b1-3)Gal(b1-4)[Fuc(a1-3)]GalNAc
# How it was run: as §1
# [14] = molecular target: Fuc(a1-2)Gal(b1-4)[Fuc(a1-3)]GlcNAc
# How it was run: as §1
# [15] = molecular target: Fuc(a1-2)GlcNAc
# How it was run: as §1
# [16] = molecular target: Fuc(a1-2)[Gal(a1-3)]Gal
# How it was run: as §1
# [17] = molecular target: Fuc(a1-2)[Gal(a1-3)]Gal(b1-3)GlcNAc
# How it was run: as §1
# [18] = molecular target: Fuc(a1-2)[Gal(a1-3)]Gal(b1-4)Glc
# How it was run: as §1
# [19] = molecular target: Fuc(a1-2)[Gal(a1-3)]Gal(b1-4)GlcNAc
# How it was run: as §1
# [20] = molecular target: Fuc(a1-2)[Gal(a1-3)]Gal(b1-4)[Fuc(a1-3)]GlcNAc
# How it was run: as §1
# [21] = molecular target: Fuc(a1-2)[Gal(a1-4)]Gal(b1-4)GalNAc
# How it was run: as §1
# [22] = molecular target: Fuc(a1-2)[GalNAc(a1-3)]Gal
# How it was run: as §1
# [23] = molecular target: Fuc(a1-2)[GalNAc(a1-3)]Gal(b1-3)GlcNAc
# How it was run: as §1
# [24] = molecular target: Fuc(a1-2)[GalNAc(a1-3)]Gal(b1-4)Glc
# How it was run: as §1
# [25] = molecular target: Fuc(a1-2)[GalNAc(a1-3)]Gal(b1-4)GlcNAc
# How it was run: as §1
# [26] = molecular target: Fuc(a1-2)[GalNAc(a1-3)]Gal(b1-4)[Fuc(a1-3)]GlcNAc
# How it was run: as §1
# [27] = molecular target: Fuc(a1-2)[GalNAc(a1-4)]Gal(b1-4)GlcNAc
# How it was run: as §1
# [28] = molecular target: Fuc(a1-3)GlcNAc
# How it was run: as §1
# [29] = molecular target: Fuc(a1-3)[Gal(b1-4)]GlcNAc
# How it was run: as §1
# [30] = molecular target: Fuc(a1-3)[Gal(b1-4)]GlcNAc(b1-4)Gal(b1-4)[Fuc(a1-3)]GlcNAc
# How it was run: as §1
# [31] = molecular target: Fuc(a1-3)[Gal(b1-4)]GlcNAc(b1-4)Gal(b1-4)[Fuc(a1-3)]GlcNAc(b1-4)Gal(b1-4)[Fuc(a1-3)]GlcNAc
# How it was run: as §1
# [32] = molecular target: Fuc(a1-3)[Gal3S(b1-4)]GlcNAc
# How it was run: as §1
# [33] = molecular target: Fuc(a1-3)[GalNAc(b1-4)]Gal(b1-4)GlcNAc
# How it was run: as §1
# [34] = molecular target: Fuc(a1-4)GlcNAc
# How it was run: as §1
# [35] = molecular target: Fuc(b1-3)GlcNAc
# How it was run: as §1
# [36] = molecular target: Gal(a1-2)Gal
# How it was run: as §1
# [37] = molecular target: Gal(a1-3)Gal
# How it was run: as §1
# [38] = molecular target: Gal(a1-3)Gal(b1-3)Glc
# How it was run: as §1
# [39] = molecular target: Gal(a1-3)Gal(b1-3)GlcNAc
# How it was run: as §1
# [40] = molecular target: Gal(a1-3)Gal(b1-4)GlcNAc
# How it was run: as §1
# [41] = molecular target: Gal(a1-3)Gal(b1-4)[Fuc(a1-3)]GalNAc
# How it was run: as §1
# [42] = molecular target: Gal(a1-3)GlcNAc
# How it was run: as §1
# [43] = molecular target: Gal(a1-3)[Gal(a1-4)]Gal(b1-4)GlcNAc
# How it was run: as §1
# [44] = molecular target: Gal(a1-4)Gal(b1-4)Gal
# How it was run: as §1
# [45] = molecular target: Gal(a1-4)Gal(b1-4)GalNAc
# How it was run: as §1
binder,measurement,setting,value
"Onconase (Rana pipiens), P22069 (protein) QDWLTFQKKHITNTRDVDCDNIMSTNLFHCKDKNTFIYSRPEPVKAICKGIIASKNVLTTSEFYLSDCNVTSRPCKYKLKKSTNKFCVTCENQAPVHFVGVGSC",glycan array binding signal (z-score),[1],1.87
same,glycan array binding signal (z-score),[2],0.677
same,glycan array binding signal (z-score),[3],-1.12
same,glycan array binding signal (z-score),[4],0.338
same,glycan array binding signal (z-score),[5],1.01
same,glycan array binding signal (z-score),[6],-0.209
same,glycan array binding signal (z-score),[7],-1.23
same,glycan array binding signal (z-score),[8],-1.2
same,glycan array binding signal (z-score),[9],0.437
same,glycan array binding signal (z-score),[10],1.25
same,glycan array binding signal (z-score),[11],1.41
same,glycan array binding signal (z-score),[12],0.784
same,glycan array binding signal (z-score),[13],1.83
same,glycan array binding signal (z-score),[14],-0.273
same,glycan array binding signal (z-score),[15],-0.959
same,glycan array binding signal (z-score),[16],0.782
same,glycan array binding signal (z-score),[17],0.554
same,glycan array binding signal (z-score),[18],-0.953
same,glycan array binding signal (z-score),[19],-0.664
same,glycan array binding signal (z-score),[20],-0.031
same,glycan array binding signal (z-score),[21],-0.619
same,glycan array binding signal (z-score),[22],-0.105
same,glycan array binding signal (z-score),[23],0.575
same,glycan array binding signal (z-score),[24],0.784
same,glycan array binding signal (z-score),[25],-0.064
same,glycan array binding signal (z-score),[26],0.41
same,glycan array binding signal (z-score),[27],-0.285
same,glycan array binding signal (z-score),[28],-1.49
same,glycan array binding signal (z-score),[29],-0.812
same,glycan array binding signal (z-score),[30],1.21
same,glycan array binding signal (z-score),[31],0.991
same,glycan array binding signal (z-score),[32],0.289
same,glycan array binding signal (z-score),[33],-0.655
same,glycan array binding signal (z-score),[34],-1.6
same,glycan array binding signal (z-score),[35],-0.753
same,glycan array binding signal (z-score),[36],3.22
same,glycan array binding signal (z-score),[37],0.767
same,glycan array binding signal (z-score),[38],-1.11
same,glycan array binding signal (z-score),[39],-0.911
same,glycan array binding signal (z-score),[40],-0.083
same,glycan array binding signal (z-score),[41],0.431
same,glycan array binding signal (z-score),[42],0.28
same,glycan array binding signal (z-score),[43],1.3
same,glycan array binding signal (z-score),[44],0.718
same,glycan array binding signal (z-score),[45],-0.669
